Publication PMC4336329 (PLoS ONE, 2015)
In all, about 310,000 compounds went through this assay and about 14,000 (4.5%) showed an effect of 50% or more. The effect is printed as a negative number. Some of the results follow.
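Also: peak tail current of the secondary pulse compared with the same well before compound.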

What follows are molecules tested against human ether-à-go-go-related gene (hERG) potassium channel (human, UniProt Q12809) (assay: primary screen, population patch clamp on CHO cells stably expressing hERG).
Chain of human ether-à-go-go-related gene (hERG) potassium channel (Q12809 whole entry, looked up): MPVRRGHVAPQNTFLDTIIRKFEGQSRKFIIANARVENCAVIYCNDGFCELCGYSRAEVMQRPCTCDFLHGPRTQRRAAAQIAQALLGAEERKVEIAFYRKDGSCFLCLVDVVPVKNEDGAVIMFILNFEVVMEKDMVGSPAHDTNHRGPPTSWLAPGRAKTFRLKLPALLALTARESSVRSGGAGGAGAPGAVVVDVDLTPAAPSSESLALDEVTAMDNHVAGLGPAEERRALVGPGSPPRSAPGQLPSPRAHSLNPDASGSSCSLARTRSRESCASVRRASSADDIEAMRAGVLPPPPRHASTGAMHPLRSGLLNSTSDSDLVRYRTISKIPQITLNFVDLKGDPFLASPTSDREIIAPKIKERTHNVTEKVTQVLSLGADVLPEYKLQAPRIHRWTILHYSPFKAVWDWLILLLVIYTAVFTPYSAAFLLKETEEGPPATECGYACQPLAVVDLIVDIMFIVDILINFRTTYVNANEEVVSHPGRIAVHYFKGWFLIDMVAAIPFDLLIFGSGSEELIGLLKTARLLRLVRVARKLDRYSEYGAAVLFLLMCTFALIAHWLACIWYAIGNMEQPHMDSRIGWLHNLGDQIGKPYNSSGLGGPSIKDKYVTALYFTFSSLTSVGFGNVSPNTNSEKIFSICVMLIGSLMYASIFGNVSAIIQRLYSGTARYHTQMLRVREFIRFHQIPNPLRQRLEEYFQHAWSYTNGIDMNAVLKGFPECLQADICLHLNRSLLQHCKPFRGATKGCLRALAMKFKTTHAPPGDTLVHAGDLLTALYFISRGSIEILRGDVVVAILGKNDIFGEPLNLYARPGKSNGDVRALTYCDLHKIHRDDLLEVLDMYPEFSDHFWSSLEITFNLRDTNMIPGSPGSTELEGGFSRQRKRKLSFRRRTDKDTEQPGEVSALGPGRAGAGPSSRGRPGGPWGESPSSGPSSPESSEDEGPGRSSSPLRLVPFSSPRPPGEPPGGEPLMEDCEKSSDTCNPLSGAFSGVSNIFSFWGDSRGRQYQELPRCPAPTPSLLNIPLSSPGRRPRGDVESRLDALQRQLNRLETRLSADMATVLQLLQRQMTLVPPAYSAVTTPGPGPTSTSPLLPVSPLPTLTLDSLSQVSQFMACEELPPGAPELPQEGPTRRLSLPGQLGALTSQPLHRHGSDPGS
In the case of CCOCCNC(=O)c1ccc2c3c(cccc13)CC2, the “hERG current change (%, negative = inhibition) at 10uM” value is reported as 3.39%. For Cc1cc2ncn(-c3ncnc4sc5c(c34)CCC(C)C5)c2cc1C (stereo not drawn), the “hERG current change (%, negative = inhibition) at 10uM” value was -20.4%. With O=C(NC1CCCCCC1)C(=O)NC1CC1 the “hERG current change (%, negative = inhibition) at 10uM” value was 16.2%. With O=C(C[n+]1cc(-c2ccc(F)cc2)n2c1CCC2)Nc1nc(-c2ccccc2)cs1.[Cl-] the “hERG current change (%, negative = inhibition) at 10uM” value was -11.1%. In the case of O=C(O)c1ccccc1C(=O)N1N=C2/C(=C/c3cccc([N+](=O)[O-])c3)CCCC2C1c1cccc([N+](=O)[O-])c1 (stereo not drawn), the “hERG current change (%, negative = inhibition) at 10uM” value is reported as 10.7%. With CN(C)c1oc(-c2ccccc2Cl)nc1S(=O)(=O)c1ccccc1 the “hERG current change (%, negative = inhibition) at 10uM” value was -18.3%. Cc1ccc(NC(=O)C2CCN(S(=O)(=O)c3cccs3)CC2)c(O)c1 was tested, and the “hERG current change (%, negative = inhibition) at 10uM” value was -4.34%. In the case of CC(NC(=O)c1ccc2c(c1)S(=O)(=O)N=C1CCCCCN12)c1ccc(S(N)(=O)=O)cc1 (stereo not drawn), the “hERG current change (%, negative = inhibition) at 10uM” value is reported as 17.2%. C=CCC1c2cccc(C(=O)O)c2C(=O)N1c1ccc(F)cc1 (stereo not drawn) was tested, and the “hERG current change (%, negative = inhibition) at 10uM” value was -4.59%. For CCOC(=O)C1CCN(S(=O)(=O)c2ccc(OC)c(C(=O)N3CCCCCC3)c2)CC1, the “hERG current change (%, negative = inhibition) at 10uM” value was -12.5%. In the case of COc1cc(CN2CCCC(C(=O)Nc3ccccc3Oc3cccnc3)C2)ccc1F (stereo not drawn), the “hERG current change (%, negative = inhibition) at 10uM” value is reported as -39%. With NNC(=O)C(Cc1ccccc1)NC(=O)OCc1ccccc1 (stereo not drawn) the “hERG current change (%, negative = inhibition) at 10uM” value was 21%. With COc1cccc(C(O)c2nc3ccccc3n2C)c1 (stereo not drawn) the “hERG current change (%, negative = inhibition) at 10uM” value was 3.27%. In the case of NC(=O)c1cc([N+](=O)[O-])cc2c1C=Cc1ccccc1O2, the “hERG current change (%, negative = inhibition) at 10uM” value is reported as 2.92%. For Cc1ccc(NC2=NC(c3ccccc3)n3c(nc(C)cc3=O)N2)cc1 (stereo not drawn), the “hERG current change (%, negative = inhibition) at 10uM” value was 0.493%. In the case of COc1ccc(Cl)cc1NC(=O)CN(C)C(=O)CCc1nc2ccccc2c(=O)[nH]1, the “hERG current change (%, negative = inhibition) at 10uM” value is reported as -34.6%. In the case of C=CCn1c(SCC(=O)Nc2cccc(S(=O)(=O)N(C)c3ccccc3)c2)nnc1C1CC1, the “hERG current change (%, negative = inhibition) at 10uM” value is reported as -69.8%. With Cc1oc2ccc(OC(=O)N3CCOCC3)cc2c1C(=O)OC(C)C the “hERG current change (%, negative = inhibition) at 10uM” value was -6.3%. In the case of O=S(=O)(NNc1ccc(Cl)nn1)c1ccc(F)cc1, the “hERG current change (%, negative = inhibition) at 10uM” value is reported as -4%. CCC1=Nc2cc(C(=O)NCCN3CCCC3)ccc2Sc2ccccc21 was tested, and the “hERG current change (%, negative = inhibition) at 10uM” value was -52.1%. With Nc1ccc(C2(c3ccc(N)cc3)c3ccccc3-c3ccccc32)cc1 the “hERG current change (%, negative = inhibition) at 10uM” value was 6.06%. CCOC(=O)c1c(-c2ccc(C)s2)csc1NC(=O)c1cccs1 was tested, and the “hERG current change (%, negative = inhibition) at 10uM” value was -5.14%. Fc1ccc2c(c1)C1C=CCC1C(c1cc3c(cc1Br)OCO3)N2 (stereo not drawn) was tested, and the “hERG current change (%, negative = inhibition) at 10uM” value was 4.83%. With O=C(Nc1ccc2ncccc2c1)c1cc(Cl)ccc1Cl the “hERG current change (%, negative = inhibition) at 10uM” value was 12.6%. With CCOc1cc(C)c(S(=O)(=O)NC2CCCCC2)cc1C the “hERG current change (%, negative = inhibition) at 10uM” value was 1.83%. In the case of O=C(O)c1ccc(N/N=C/c2ccc(-c3cc(Cl)ccc3Cl)o2)cc1, the “hERG current change (%, negative = inhibition) at 10uM” value is reported as 8.2%. In the case of O=C(NCc1nc2ccccc2[nH]1)c1ccc(S(=O)(=O)N2CCCC2)cc1, the “hERG current change (%, negative = inhibition) at 10uM” value is reported as 1.92%. With O=C(COC(=O)c1cccc(S(=O)(=O)N2CCCC2)c1)NCc1ccccc1 the “hERG current change (%, negative = inhibition) at 10uM” value was -10.4%. With CSc1ccccc1NC(=O)c1cccc(S(=O)(=O)N2CCN(C)CC2)c1 the “hERG current change (%, negative = inhibition) at 10uM” value was 4.73%. In the case of CC(C)c1c(O)nc(SCCOc2ccc(Cl)cc2)[nH]c1=O, the “hERG current change (%, negative = inhibition) at 10uM” value is reported as -1.69%. For O=C(OCc1c(F)cccc1Cl)c1cnc2ccccc2n1, the “hERG current change (%, negative = inhibition) at 10uM” value was 17.6%. With Cc1cccc(NC(=S)N/N=C/c2cccc([N+](=O)[O-])c2)c1 the “hERG current change (%, negative = inhibition) at 10uM” value was -0.54%. In the case of Cc1ccsc1/C=C1\CCc2ccccc2C1=O, the “hERG current change (%, negative = inhibition) at 10uM” value is reported as 17.2%. With CCS(=O)(=O)N1CCC(C(=O)N2CCc3ccccc3C2)CC1 the “hERG current change (%, negative = inhibition) at 10uM” value was -0.753%. For O=C1CC(N2CCOCC2)C(=O)N1c1ccc2c(c1)OCO2 (stereo not drawn), the “hERG current change (%, negative = inhibition) at 10uM” value was -6.05%. CC1C(c2ccccc2)N(C)C(c2ccccc2)CC1(O)c1ccccc1 (stereo not drawn) was tested, and the “hERG current change (%, negative = inhibition) at 10uM” value was -2.31%. With O=C(Nc1ccccc1C(F)(F)F)C1CCN(C(=O)Cc2ccccc2)CC1 the “hERG current change (%, negative = inhibition) at 10uM” value was 18.3%. For Cc1cc(C)n(-c2ccc(NN=C(C#N)C#N)cc2)n1, the “hERG current change (%, negative = inhibition) at 10uM” value was -38.7%. For COc1cc(C(CC(=O)Nc2cccc(C)n2)N2Cc3ccccc3C2=O)cc(OC)c1OC (stereo not drawn), the “hERG current change (%, negative = inhibition) at 10uM” value was 15.2%. In the case of Cc1nn(-c2ccccc2)c(Cl)c1/C=N/N1CCN(c2ccccn2)CC1, the “hERG current change (%, negative = inhibition) at 10uM” value is reported as 30.5%. With CCC(CC)NC(=O)COC(=O)CCC(=O)c1cccs1 the “hERG current change (%, negative = inhibition) at 10uM” value was -5.75%. COCCn1c(SCc2nc(N)nc(Nc3ccccc3C)n2)nc2ccccc2c1=O was tested, and the “hERG current change (%, negative = inhibition) at 10uM” value was -35.3%. For Cl.NCCSSCCN, the “hERG current change (%, negative = inhibition) at 10uM” value was 5.97%. With CCOC(=O)CSC1=C(C#N)C(c2ccccc2)C(C(C)=O)=C(C)N1 (stereo not drawn) the “hERG current change (%, negative = inhibition) at 10uM” value was -10.6%. In the case of CN1CCc2c(C#N)c(Cl)nc(Cl)c2C1, the “hERG current change (%, negative = inhibition) at 10uM” value is reported as 10.4%. In the case of CCCCNC(=O)c1ccc2c(c1)ncn2C1CCCC1, the “hERG current change (%, negative = inhibition) at 10uM” value is reported as -16.7%. With CC(=O)/C(=N\Nc1ccccc1)Oc1ccc(Br)cc1 the “hERG current change (%, negative = inhibition) at 10uM” value was 6.11%. With CCn1cc(C(=O)NCCc2ccc(OC)cc2)c(=O)c2ccc(C)nc21 the “hERG current change (%, negative = inhibition) at 10uM” value was 7.61%. In the case of COc1ccc(O)c(C(C)(C)C)c1, the “hERG current change (%, negative = inhibition) at 10uM” value is reported as -4.9%. CCC(CC)c1nnc(NC(=O)CCc2ccccc2OC)s1 was tested, and the “hERG current change (%, negative = inhibition) at 10uM” value was 2.09%. COc1cc(/C=C/C(=O)OCC(=O)c2c[nH]c3ccccc23)ccc1OC(F)F was tested, and the “hERG current change (%, negative = inhibition) at 10uM” value was 10%. With O=C(CSc1nnnn1-c1ccccc1)NCc1cccs1 the “hERG current change (%, negative = inhibition) at 10uM” value was 1.6%. With COc1ccc(/C=C/c2nc3ccccc3n2Cc2ccccc2OC)cc1 the “hERG current change (%, negative = inhibition) at 10uM” value was -6.12%. CC(=O)c1c(C)[nH]c(C(=O)OCc2cc(=O)n3cc(Br)ccc3n2)c1C was tested, and the “hERG current change (%, negative = inhibition) at 10uM” value was -3.69%. With COc1ccc(CCNC(=O)c2c(O)c3cccc4c3n(c2=O)CC4)cc1OC the “hERG current change (%, negative = inhibition) at 10uM” value was -5.2%. With COc1cc(/C=N/Nc2ccc([N+](=O)[O-])cn2)cc(OC)c1O the “hERG current change (%, negative = inhibition) at 10uM” value was 5.77%. Cc1cc(C)cc(NC(=O)Cn2nnc(C(=O)NCCc3ccccc3)c2N)c1 was tested, and the “hERG current change (%, negative = inhibition) at 10uM” value was 8.03%.
